In all, about 43,000 compounds went through this assay and about 200 (0.47%) were called active. Another 12% or so got no clear call; they are omitted. Calls come from the whole dose curve; as a rule, active = well fitted cell-killing curve with a large enough effect; inconclusive = small, poorly fitted or top-dose-only effect, or effect the other way; inactive = flat fitted curve, though single readings scatter. This is one part of the list.
assay: Cell viability qHTS assay in S16 Pmp22-F2sN cells; conditions: S16 Pmp22-F2sN Schwann cells viability, CellTiter-Glo, 24 h; series mostly up to 57.5 µM; activity change, negative = cytotoxicity: at the top concentration; note: nearly all actives have a fitted effect of over 65% in size
Outline: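 Used to flag compounds lowering reporter output through toxicity, this quantitative HTS measures ATP-based CellTiter-Glo luminescence in S16 Pmp22-F2sN Schwann cells after 24 h compound exposure at 37C.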
% is set by controls: 0 for no effect and ±100 for the full control effect.

SMILES | activity change, negative = cytotoxicity
O=C(CNS(=O)(=O)c1ccc(Br)s1)N1CCN(c2ccccc2F)CC1 | inactive: 6.28%
Cc1nn(CC(=O)N2CCN(c3ccccc3)CC2)c(=O)c2cccn12 | inactive: 14%
Cc1ccc(-n2ncc3c(NCCC4=CCCCC4)ncnc32)cc1C | inactive: 0.104%
Cc1oc(-c2ccc(Cl)cc2)nc1Cn1c(=O)cc(-c2ccccc2)c2c(C)nn(C)c21 | inactive: -4.18%
NS(=O)(=O)c1ccc(CCNc2nc3c(-c4cccc(F)c4)nnn3c3ccc(Cl)cc23)cc1 | inactive: 20.7%
CCOc1ccccc1NC(=O)Cn1nnc2sc3c(c2c1=O)CCC(C(C)(C)C)C3 (centres undefined) | inactive: 1.4%
COc1ccc(NC(=O)Cn2cc(C(=O)C3CC3)c3ccccc32)cc1 | inactive: 5.12%
COC(=O)c1cc(NC(=O)CN(c2ccccc2)S(=O)(=O)N(C)C)ccc1Cl | inactive: 11.5%
Cc1cc(C)c(/C=C/c2onc(C)c2S(=O)(=O)N2CCC(C(=O)NCc3ccco3)CC2)c(C)c1 | inactive: -18.3%
CCOC(=O)N1CCN(C(=O)CN(c2ccc(C)cc2C)S(=O)(=O)c2ccccc2)CC1 | inactive: 14.1%
O=C(CN1C(=O)C2(SCC(=O)N2c2cccc(Cl)c2)c2ccccc21)NC1CCCCC1 (centres undefined) | inactive: -3.32%
Cc1ccc(CSc2nc3ccc(NC(=O)COc4ccccc4F)cc3s2)cc1 | inactive: 17%
O=C(CCCCn1c(=O)[nH]c2ccsc2c1=O)N1CCN(c2cccc(Cl)c2)CC1 | inactive: -17.7%
COc1ccc(Cl)cc1N(C)C(=O)Cn1cnc2sc(C)c(S(=O)(=O)N3CCN(c4ncccn4)CC3)c2c1=O | inactive: 8.95%
CCC(CC)C(=O)Nc1ccccc1C(=O)OCc1cc(=O)n2nc(C3CCCCC3)sc2n1 | inactive: 2.47%
CCOc1ccc(CNC(=O)Cn2ncc3c(=O)oc4ccc(C)cc4c32)cc1 | inactive: -0.501%
Cc1ccc(C)c(CN2C(=O)c3ccccc3S(=O)(=O)c3ccc(C(=O)N4CCOCC4)cc32)c1 | inactive: -18.6%
O=S(=O)(c1cccs1)N1CCN(c2ccc(Cl)cc2)CC1 | inactive: -2.51%
COc1ccc(C(=O)N2CCCCC2CCN2CCCCC2)cc1 (centres undefined) | inactive: 7.11%
COc1ccc(Cl)cc1NC(=O)[C@H]1O[C@@H]2OC(C)(C)O[C@@H]2[C@H]2OC(C)(C)O[C@H]21 | inactive: 11.2%
CCOc1ccccc1CNC(=O)CCCN1C(=O)CCn2nc(-c3cccn3C)cc21 | inactive: 6.06%
Cc1ccc(-c2cc(C(F)(F)F)n3nc(C(=O)Nc4ccc(C#N)cc4)cc3n2)cc1 | inactive: -0.467%
Cc1ccc(CNC(=O)C2CCN(S(=O)(=O)c3ccc4c(c3)oc(=O)n4C)CC2)cc1 | inactive: 7.64%
CCc1ccc(-n2nc(C)c3c(C)cc(=O)n(CC(=O)Nc4ccc(OC)c(OC)c4)c32)cc1 | inactive: -19.3%

SMILES | activity change, negative = cytotoxicity
Cc1cccc2sc(N3CCN(C(=O)c4ccco4)CC3)nc12 | inactive: -5.16%
Cc1cccc(S(=O)(=O)c2cn(Cc3ccccc3)c3cc(N4CCCC(C)C4)c(F)cc3c2=O)c1 (centres undefined) | inactive: 5.69%
CSc1nn(Cc2cccc(F)c2)c(N(C(C)=O)C(C)=O)c1S(=O)(=O)c1ccccc1 | inactive: 16.1%
COc1ccc(OC)c(CNCc2c(C(=O)O)n(Cc3ccccc3)c3cc(OC)ccc23)c1 | inactive: 12.2%
CCC(=O)N1CCc2cc(S(=O)(=O)NC(CC(C)C)C(=O)Nc3ccc(CC)cc3)ccc21 (centres undefined) | inactive: -11.6%
O=C(CN1N=C(c2ccc(Cl)cc2)CCC1=O)NCc1ccc(F)cc1 | inactive: -16%
Clc1ccc(CSc2nc(NCCc3ccccc3)c3ccccc3n2)cc1 | inactive: -4.77%
O=C(CC1NCCNC1=O)Nc1cccc(F)c1 (centres undefined) | inactive: 1.06%
Cc1ccc2ncc3c(-c4ccccc4)nn(CC(=O)NC4CCCCC4)c3c2c1 | inactive: -15.2%
COc1ccccc1N1CCN(CCCNC(=O)Cn2ncc3c([nH]c4ccccc43)c2=O)CC1 | inactive: 7.03%
COc1ccc(NC(=O)CSC2=Nc3ccccc3C3=NC(CCC(=O)NCc4ccco4)C(=O)N23)cc1 (centres undefined) | inactive: 0.758%
Cc1ccc(NC(=O)Cn2c(=O)oc3cc(S(=O)(=O)N4CCCC4)ccc32)cc1F | inactive: -5.94%
COc1cccc(C2C(C(=O)Nc3cccnc3)=C(C)Nc3nc(SCc4ccccc4)nn32)c1 (centres undefined) | inactive: 16%
CCOC(=O)c1ccc(NC(=O)C2CCCN(c3ncnc4onc(C)c34)C2)cc1 (centres undefined) | inactive: 3.75%
Cc1nc2ccc(S(=O)(=O)CCC(=O)Nc3ccccc3C)cc2s1 | inactive: -0.296%
COc1ccc(Nc2nnc(-c3ccc(C)c(S(N)(=O)=O)c3)c3ccccc23)cc1 | inactive: 17.3%
CC(=O)c1cccc(NC(=O)C2=CC(c3ccco3)=NS(=O)(=O)N2C)c1 | inactive: 5.89%
COc1ccc(CCNc2oc(COc3ccc(Cl)cc3)nc2C#N)cc1OC | inactive: -6.6%
COc1ccccc1CNC(=O)C(=O)NCC(c1ccc2c(c1)OCO2)N1CCOCC1 (centres undefined) | inactive: -15.8%
CCc1ccc(CNc2nc3nc(C)c(Cc4ccccc4)c(=O)n3[nH]2)cc1 | inactive: -0.428%
CCc1ccc(-c2nc(SCC(=O)NCCOC)c(-c3ccc(C)cc3)[nH]2)cc1 | inactive: 13.7%
CCOc1ccc(CNCCSc2nnnn2C)cc1OC | inactive: 17%
O=C(CS(=O)(=O)c1cccc2nsnc12)N1CCN(c2ccccc2)CC1 | inactive: 0.823%
Cc1c(-c2nnc(SCC(=O)Nc3ccc(Br)cc3)o2)nnn1-c1ccc(F)cc1 | inactive: 12.9%

SMILES | activity change, negative = cytotoxicity
O=C(Cn1c(=O)n(Cc2ccc(C(=O)NCc3ccc4c(c3)OCO4)cc2)c(=O)c2ccccc21)Nc1ccc(F)cc1F | inactive: 3%
COC(=O)c1ccn(-c2nc(-c3ccc(Cl)cc3)cc(C(F)(F)F)n2)n1 | inactive: -0.996%
COC(=O)c1ccccc1NC(=O)c1cn2c3c(ccc(Cl)c3c1=O)OC(C)C2 (centres undefined) | inactive: 5.1%
CCCCNC(=O)C1CCN(c2nc3ccc(C)cc3[nH]2)CC1 | inactive: 9.26%
CC(C)c1ccc(CN(Cc2ccco2)c2cnc(S(C)(=O)=O)nc2C(=O)Nc2ccccc2)cc1 | inactive: -18.2%
COc1ccc(-c2nc(C)c(CCNS(=O)(=O)c3ccc(F)cc3)s2)cc1OC | inactive: -2.76%
Cc1ccc2oc(-c3cccc(NC(=O)c4ccc(N5CCC(C)CC5)c([N+](=O)[O-])c4)c3)nc2c1 | inactive: -0.645%
CC(C)(C)C(=O)Nc1nc2nc(-c3ccccc3)cc(=O)n2[nH]1 | inactive: 2.39%
CCCCNC(=O)CN1C(=O)c2c(c3ccccc3n2C)C1c1ccc(OC)cc1 (centres undefined) | inactive: 4.52%
CC(=O)c1ccc(NC(=O)CSc2c(C(C)C)cnc3c2c(=O)n(C)c(=O)n3C)cc1 | inactive: -22.7%
COc1ccc(C2CC(=O)c3cc(-c4nc(-c5cccc([N+](=O)[O-])c5)cs4)c(=O)n(-c4ccc(F)cc4)c3C2)cc1 (centres undefined) | inactive: -3.28%
CCc1cccc(C)c1NC(=O)c1cc(S(=O)(=O)N2CCC3(CC2)OCCO3)ccc1F | inactive: -13.4%
Cn1c(=O)n(C)c2cc(CNCc3ccccc3)ccc21 | inactive: 5.65%
Cc1cc(C)c(S(=O)(=O)Nc2cc(Cl)c3oc4c(c3c2)C(=O)CCC4)cc1C | inactive: -1.11%
CCOC(=O)Cn1c(=O)n(C2CCCCC2)c2nc(-c3ccc(OC)cc3)nc(C(N)=O)c21 | inactive: 1.51%
COc1ccc(Cc2nc3ccc(C(=O)NCCc4ccc(OC)c(OC)c4)cc3o2)cc1 | inactive: -8.79%
Cc1cc(C)cc(NC(c2nnc(-c3cccc(F)c3)o2)c2ccc(F)cc2Cl)c1 (centres undefined) | inactive: 1.76%
CCOc1ccc(C(=O)Nc2ccc(-c3nnc4n3CCCCC4)cc2)cc1OCC | inactive: -3.96%
Cc1cccc2c(=O)cc(CSCC(=O)Nc3ccc(Cl)cc3)[nH]c12 | inactive: -24%
Cc1ccc(Cn2c(=O)n(Cc3ccccc3)c(=O)c3c(C)c(C)sc32)cc1 | inactive: -8.26%
Cc1ccc(CNC(=O)C(=O)NCC(c2ccco2)S(=O)(=O)c2ccc(C)cc2)cc1 (centres undefined) | inactive: -4.95%
Cc1ccc(CNS(=O)(=O)c2cc(Br)cc3c2N(C(=O)C2CC2)CC3)cc1 | inactive: 11.9%
Cc1cc(F)ccc1NC(=O)C1CCN(S(=O)(=O)c2ccc3c(c2)CCCC(=O)N3)CC1 | inactive: -1.01%
Cc1cccc(C(=O)Nc2ccc(C(=O)OCc3cc(=O)n4c(C)csc4n3)cc2)c1 | inactive: 0.718%

SMILES | activity change, negative = cytotoxicity
NC(=O)CSc1oc(-c2cccs2)nc1S(=O)(=O)c1ccc(Br)cc1 | inactive: -0.501%
COc1ccc(S(=O)(=O)NCC(c2ccco2)N2CCN(c3ccc(F)cc3)CC2)cc1 (centres undefined) | inactive: -0.539%
CC(C)(C)NC(=O)CSc1nc(-c2ccc(F)cc2)cc(C(F)(F)F)n1 | inactive: 2.8%
CC(C)c1cnc2c(c1SCC(=O)c1ccccc1)c(=O)n(C)c(=O)n2C | inactive: 2.9%
O=C(NCc1ccccc1)c1ccc2c(c1)N(Cc1ccccc1)C(=O)c1ccccc1S2(=O)=O | inactive: -4.32%
O=C(Cn1c(=O)c(C(F)(F)F)nc2ccccc21)Nc1ccc(Br)cc1F | inactive: 1.57%
COc1ccc(S(=O)(=O)N2CCN(c3ccccc3)CC2)cc1-c1noc(C)n1 | inactive: 3.54%
COC(=O)c1ccc(NC(=O)N2CCN(c3nnc(C)c4c(C)n(-c5ccccc5)nc34)CC2)cc1 | inactive: 1.44%
O=C(c1cnc2c(c1)COc1ccccc1-2)c1ccccc1O | inactive: 8.58%
Cn1nc(-c2ccccc2F)c2cc(C(=O)Nc3cc(F)ccc3F)sc21 | inactive: 13.5%
Cc1ccccc1Cn1cc(CCC(=O)NCc2cccc(Br)c2)c2ccccc21 | inactive: -10.7%
COc1cc(CNc2ccc3[nH]c(=O)[nH]c3c2)cc(Br)c1OCc1ccccc1F | inactive: -21.4%
Cc1cccc(CN2CCN(CC(=O)Nc3c(C)cccc3C)S2(=O)=O)c1 | inactive: -2.17%
Cc1ccc(C)n1-c1nnc(N2CCCC(C(=O)NCc3cccc(Br)c3)C2)s1 (centres undefined) | inactive: -5.84%
COCCNC(=O)CSc1nc(-c2ccccc2)[nH]c1-c1ccc(C)cc1 | inactive: -3.2%
Cc1cccc(C(=O)Nc2ccc(N3CCC(N4CCCCC4)CC3)c(C(=O)O)c2)c1 | inactive: -4.13%
Cc1ccc(Cl)cc1NC(=O)CC1Sc2ccccc2NC1=O (centres undefined) | inactive: 0.121%
Cc1ccc(CNC(=O)CCc2c(C)nc3c4c(C)cc(C)nc4nn3c2C)cc1 | inactive: 1.73%
CC1=C(C(=O)NCc2ccc(Cl)cc2)C2(CCC(C)CC2)OC1=O (centres undefined) | inactive: 10.1%
NC1=NC(c2cc(F)cc(F)c2)n2c(nc3ccccc32)N1 (centres undefined) | inactive: 20.3%
CCOC(=O)c1ccc2c(c1)N(Cc1ccc(F)cc1Cl)C(=O)c1ccccc1S2 | inactive: -4.04%
Cc1cnc(=O)[nH]c1SCC(=O)Nc1cc(C(F)(F)F)ccc1Cl | inactive: -8.07%

Reference: PubChem BioAssay AID1508642 (National Center for Advancing Translational Sciences (NCATS), 2021)
